Experimental data published in a collection of fitness landscapes (doi:10.1126/science.1257360).
This is one part of the list.

B1: PhoQ; a variant is named by its letters at X, in order, P23837 (parent)
chain: MKKLLRLFFPLSLRVRFLLATAAVVLVLSLAYGMVALIGYSVSFDKTTFRLLRGESNLFYTLAKWENNKLHVELPENIDKQSPTMTLIYDENGQLLWAQRDVPWLMKMIQPDWLKSNGFHEIEADVNDTSLLLSGDHSIQQQLQEVREDDDDAEMTHSVAVNVYPATSRMPKLTIVVVDTIPVELKSSYMVWSWFIYVLSANLLLVIPLLWVAAWWSLRPIEALAKEVRELEEHNRELLNPATTRELTSLVRNLNRLLKSERERYDKYRTTLTDLTHSLKTPLXXLQXXLRSLRSEKMSVSDAEPVMLEQISRISQQIGYYLHRASMRGGTLLSRELHPVAPLLDNLTSALNKVYQRKGVNISLDISPEISFVGEQNDFVEVMGNVLDNACKYCLEFVEISARQTDEHLYIVVEDDGPGIPLSKREVIFDRGQRVDTLRPGQGVGLAVAREITEQYEGKIVAGESMLGGARMEVIFGRQHSAPKDE

Variants of: B1
Test: enrichment ratio after two sorts for PhoP signalling (ratio (wild type AVST 3.29)); higher = more functional
Details: with PhoP (E. coli)

Variant	enrichment ratio
GIRM	≤ 0.25
ETIW	≤ 0.25
MLNS	≤ 0.25
NAEH	≤ 0.25
KDDI	≤ 0.25
ADVS	≤ 0.25
VKIN	≤ 0.25
AQCR	≤ 0.25
LVDH	≤ 0.25
LDTR	≤ 0.25
HAML	5.58
TIWE	≤ 0.25
WAHM	≤ 0.25
LYAY	≤ 0.25
EVAQ	≤ 0.25
PCLT	≤ 0.25
ICQR	≤ 0.25
RCDK	≤ 0.25
SQQA	≤ 0.25
MVIT	≤ 0.25
IMWF	≤ 0.25
APKG	≤ 0.25
NGIS	≤ 0.25
NHSE	≤ 0.25

Variant	enrichment ratio
VYGL	≤ 0.25
YYPF	≤ 0.25
EYMM	≤ 0.25
ICPR	≤ 0.25
VPIS	≤ 0.25
IPSG	≤ 0.25
NICA	≤ 0.25
TWHL	≤ 0.25
APNT	≤ 0.25
PICL	≤ 0.25
FKVW	≤ 0.25
YEDP	≤ 0.25
MRYH	≤ 0.25
VPGS	≤ 0.25
DAQW	≤ 0.25
CCFK	≤ 0.25
DIQN	≤ 0.25
RFWN	≤ 0.25
PPAR	≤ 0.25
SENE	≤ 0.25
IAWQ	≤ 0.25
KACS	≤ 0.25
ATHV	≤ 0.25
TSAH	8.44

Variant	enrichment ratio
NART	≤ 0.25
FGAC	≤ 0.25
NIYF	≤ 0.25
FLLG	≤ 0.25
IHIH	≤ 0.25
ELRS	≤ 0.25
FRWI	≤ 0.25
QCPC	≤ 0.25
WFYS	≤ 0.25
REAW	≤ 0.25
VYSC	≤ 0.25
ETSW	≤ 0.25
YHRN	≤ 0.25
KSTI	≤ 0.25
RDDN	≤ 0.25
DPWW	≤ 0.25
WATD	≤ 0.25
MASR	≤ 0.25
AHRH	≤ 0.25
NPAL	≤ 0.25
SHGW	≤ 0.25
DRCP	≤ 0.25
YWVS	≤ 0.25
AMSD	≤ 0.25

Variant	enrichment ratio
VWGM	≤ 0.25
ITIG	≤ 0.25
TYRR	≤ 0.25
TKCN	2.43
FNWS	≤ 0.25
SEFK	≤ 0.25
NRAV	≤ 0.25
TLQN	1.7
AYRQ	≤ 0.25
ATKS	≤ 0.25
PSLT	≤ 0.25
VEIM	≤ 0.25
WVWC	≤ 0.25
PVDV	≤ 0.25
ARIN	≤ 0.25
RLKD	≤ 0.25
KEHS	≤ 0.25
SGWV	≤ 0.25
IDDL	≤ 0.25
SYWN	≤ 0.25
RKVA	≤ 0.25
LSYQ	4.49
GHVH	≤ 0.25
HASN	≤ 0.25

Variant	enrichment ratio
AFTN	≤ 0.25
EEGR	≤ 0.25
RQTC	≤ 0.25
QWLS	≤ 0.25
RDPC	≤ 0.25
EQAI	≤ 0.25
FKYR	≤ 0.25
HVGK	≤ 0.25
FERC	≤ 0.25
QYAA	≤ 0.25
KAWK	≤ 0.25
NMTD	≤ 0.25
FNKP	1.27
TLFI	≤ 0.25
MKKL	≤ 0.25
NFVQ	≤ 0.25
VWQG	≤ 0.25
AEDP	≤ 0.25
YLWS	≤ 0.25
CTCH	≤ 0.25
QSHL	13.5
RVVI	≤ 0.25
DYPE	≤ 0.25
DRWS	≤ 0.25

Variant	enrichment ratio
LRNC	≤ 0.25
ACKW	≤ 0.25
VFAN	≤ 0.25
APRQ	≤ 0.25
GHAK	≤ 0.25
RRLT	≤ 0.25
SSAY	7.87
VEEW	≤ 0.25
RSAQ	≤ 0.25
WRSY	≤ 0.25
ANEW	≤ 0.25
YGKE	≤ 0.25
NAVM	≤ 0.25
QDVD	≤ 0.25
LEAT	4.6
ELMS	≤ 0.25
TQMK	≤ 0.25
WVIM	≤ 0.25
WCNP	≤ 0.25
TTKN	≤ 0.25
HPNA	≤ 0.25
VVFF	≤ 0.25
TQNF	5.58
NPCV	≤ 0.25

Variant	enrichment ratio
VMHP	≤ 0.25
PCQA	≤ 0.25
GLHI	≤ 0.25
MQIC	≤ 0.25
LVSI	≤ 0.25
TQMR	≤ 0.25
DPNV	≤ 0.25
LMVV	≤ 0.25
DTML	≤ 0.25
AQEV	≤ 0.25
PALG	≤ 0.25
ILLM	≤ 0.25
AIFA	≤ 0.25
SWGG	≤ 0.25
NYTE	≤ 0.25
TQVR	≤ 0.25
NKMF	≤ 0.25
NNSG	≤ 0.25
QCWY	5.67
REHF	≤ 0.25
NRAR	≤ 0.25
YGAV	≤ 0.25
KGKS	≤ 0.25
TTDY	2.19

Variant	enrichment ratio
IVLD	≤ 0.25
MLSS	≤ 0.25
RSGH	≤ 0.25
VPGK	≤ 0.25
DHKG	≤ 0.25
QEDS	≤ 0.25
WNQV	≤ 0.25
GREP	≤ 0.25
WLMR	≤ 0.25
MDWI	≤ 0.25
GGQR	≤ 0.25
WVTH	≤ 0.25
FKGK	≤ 0.25
MGGN	≤ 0.25
PIQW	≤ 0.25
WWEF	≤ 0.25
KEIV	≤ 0.25
MYII	≤ 0.25
TTQE	5.96
CLYF	≤ 0.25
DWMN	≤ 0.25
WMMC	≤ 0.25
ISSD	≤ 0.25
SYKV	≤ 0.25

Variant	enrichment ratio
PLNL	≤ 0.25
AAGW	≤ 0.25
MPPG	≤ 0.25
IANR	≤ 0.25
KIMA	≤ 0.25
HELK	≤ 0.25
LLEW	≤ 0.25
TKYL	2.59
EGLD	≤ 0.25
LVAM	≤ 0.25
AWNL	≤ 0.25
TSPH	≤ 0.25
QRYT	≤ 0.25
QKVL	≤ 0.25
WWGH	≤ 0.25
METL	3.99
RTGH	≤ 0.25
EMKM	≤ 0.25
KTWL	≤ 0.25
SFRM	≤ 0.25
VWYK	≤ 0.25
RSNG	≤ 0.25
DPTW	≤ 0.25
RIHV	≤ 0.25

Variant	enrichment ratio
KYQT	≤ 0.25
QVWN	≤ 0.25
LTGI	≤ 0.25
PHRH	≤ 0.25
AHWG	≤ 0.25
WWYL	≤ 0.25
RNLI	≤ 0.25
TAHW	≤ 0.25
DMHP	≤ 0.25
THFS	≤ 0.25
MYDD	≤ 0.25
KPTS	≤ 0.25
DHCH	≤ 0.25
YREM	≤ 0.25
KYHT	≤ 0.25
LNCY	2.05
ATAF	10.1
YMYW	≤ 0.25
ICTC	≤ 0.25
FAPQ	≤ 0.25
GLIS	≤ 0.25
LLPV	≤ 0.25
ESQP	≤ 0.25
LFGM	≤ 0.25

Variant	enrichment ratio
SWGA	≤ 0.25
PCVH	≤ 0.25
RLTL	≤ 0.25
ASTY	7.94
NSWL	1.26
HEFC	≤ 0.25
TPDT	≤ 0.25
TPHL	≤ 0.25
QQWH	10.2
HQKF	≤ 0.25
YWWA	≤ 0.25
STWR	≤ 0.25
YNHH	≤ 0.25
RSYI	≤ 0.25
CDFS	≤ 0.25
GDEF	≤ 0.25
RPFY	≤ 0.25
KEIL	≤ 0.25
INSD	≤ 0.25
PMYL	≤ 0.25
KLFS	≤ 0.25
VANL	≤ 0.25
LLWM	≤ 0.25
RLPL	≤ 0.25

Variant	enrichment ratio
CLYT	≤ 0.25
YQLY	≤ 0.25
TWES	≤ 0.25
TKWF	13.4
APCV	≤ 0.25
YVNK	≤ 0.25
MCCN	1.43
VILL	2.96
GGCV	3.43
KKTI	≤ 0.25
PGIE	≤ 0.25
DDFF	≤ 0.25
RSYY	≤ 0.25
QFGQ	≤ 0.25
DLCM	≤ 0.25
TIGI	9.38
SRIC	≤ 0.25
AYIC	≤ 0.25
FKFY	≤ 0.25
SVYV	0.398
WKCY	≤ 0.25
CNDR	≤ 0.25
PKHI	≤ 0.25
SAMT	7.63

Variant	enrichment ratio
LIAW	≤ 0.25
HPVN	≤ 0.25
AYRN	≤ 0.25
AEIN	1.09
ASDG	≤ 0.25
SMGP	≤ 0.25
INHA	≤ 0.25
LVQP	≤ 0.25
EETL	≤ 0.25
QFDK	≤ 0.25
WFMR	≤ 0.25
NAHI	5.51
HPFW	≤ 0.25
AYIA	≤ 0.25
MNHL	≤ 0.25
LYIR	≤ 0.25
DADS	≤ 0.25
QIFT	≤ 0.25
